Assay results taken from the supplement of paper PMC8674133.
Numbering of substitutions follows the chain as printed. Recombinant human monoclonal antibodies (heavy:light variable regions). ELISA EC50 on the named antigen, from 10 µg/ml down; IC50 / IC90 against spike pseudovirus on 293T-ACE2 cells, 48 h; lower = stronger. Calls: IC50 above 1,000 ng/ml = non-neutralizing; EC50 above 2,000 ng/ml = non-binder. The source prints 1000 for neutralization that was not reached; it is given as >1000 ng/ml. A few antibodies were first reported in earlier work of the same group.

B1: C2020 (protein)
chain 1: EVQLVESGGGLVQPGGSLRLSCAASGLTVSSNYMSWVRQAPGKGLEWVSVIYSGGSTYYADSVKGRFTISRDNSKNTLYLQMNSLRAEDTAVYYCARETYAFDIWGQGTMVTVSS
chain 2: DIQLTQSPSFLSASVGDRVTITCRASQGISSYLAWYQQKPGKAPKLLIYAASTLQSGVPSRFSGSGSGTEFTLTISSLQPEDFATYYCQQLNSYSYTFGQGTKLEIK
B2: C1294 (protein)
chain 1: QVQLQESGPGLVKPSETLSLTCTVSGGSITNYYWSWIRQPPGKGLEWIGYISYSGSIKYNPSLKSRVTISVDTSKIQFSLKLRSVTAADTAVYYCARARTYYYDSSGYPATSFDHWGQGTLVTVSS
chain 2: QTVVTQEPSLTVSPGGTVTLTCASSTGAVTSGYCPNWFQQKPGQAPRALIYSTSNKHSWTPARFSGSLLGGKAALTLSGVQPEDEAEYYCLLYYGGTWVFGGGTKLTVL
B3: C1296 (protein)
chain 1: QVQLVQSGAEVKKPGASVKVSCKASAYTFTRYYMHWVRQAPGQGLEWMGIINPGGGSRSYAQKFQGRVTMTGDTSTSTVYMELRSLRSEDTAVYYCARGALVPDTAFGGDYWGQGTLVTVSS
chain 2: IRMTQSPSSLSASVGDRVTITCRASQGISNYLAWYQQKPGKVPNLLIYAASTLQSGVPSRFSGSGSGTDFTLTISSLQPEDVATYYCQKYNRAPFTFGPGTKVDIK
B4: C1297 (protein)
chain 1: EVQLVQSGAEVKKPGESLRISCKGSGYSFTNYWISWVCQMPGKGLEWMGRIDPSDSYTNYSPSFQGHVTISVDKSISTAYLQWSSLKASDTAIYYCARHDRSPGIQYYDILTDNWRDRDWFDPWGQGTLVTVSS
chain 2: SYELTQPPSVSVAPGKTARITCGGNNIGSKSVHWYQQKPGQAPVLVVYDDSDRPSGIPERFSGSNSGNTATLTISRVEAGDEADYYCQVWDSSSDHRGVFGGGTKLTVL
B5: C1298 (protein)
chain 1: EVQLVESGGGLVQPGGSLRLSCAASGFTFSIYDMHWVRQATGKGLEWVSTIGTASDAYYPDSVKGRFTISRENAKNSLYLQMNSLRAGDTAVYYCARGGRGYKYGNWYFDLWGRGTLVTVSS
chain 2: DIQLTQSPSSLSASVGDRVTITCRASQSISSFLNWYQQKPGKAPKLLIYAASSLQSGVPSRFSGSGSGTDFTLTISSLQPEDFATYFCQQCYTTSSFGQGTKVEIK
B6: C1299 (protein)
chain 1: QVQLVQSGAEVKKPGSSVKVSCKASGGTFSRYAISWVRQAPGQGLEWMGGIITLLGTANYAQKFQGRVTITADESTSTAYMELSSLRSEDTAVYYCARDVVPAAIAVGGYFDYWGQGTLVTVSS
chain 2: B4 chain 2 with K16Q, T21P, D91G, S92G, S93I, R97H, G98V
B7: C1300 (protein)
chain 1: EVQLVESGGGLVQPGRSLRLSCAASGFTFEDYGMHWVRQAPGKGLEWVSGISWNGGIIGYADSVKGRFTISRDNDKNSLYVQMIRLRAEDTALYYCAKSIRQWQVRGAEYYFDSWGQGTLVTVSS
chain 2: QSALTQPASVSGSPGQSITISCTGTSSDVGAYNYVSWYQHHPGKAPKLMIYEVSNRPSGVSNRFSGSKSGNTASLTISGLQAEDESDYYCTSYTSSSTVLFGGGTKLTVL
B8: C1301 (protein)
chain 1: QVQLVESGGGVVQPGRSLRLSCAASGFSFSNYGMHWVRQAPGMGLEWVALIWYDGSNKYYGDSVRGRFAISRDNSKNTLYLQMNSLRAEDTAMYYCARDEEPENMATRGNLDYWGQGTLVTVSS
chain 2: QSVLTQPPSASGTPGQRVTISCSGRNSNIGSNYVYWYQQLPGAAPKLLIYRDNQRPSGVPDRFSGSKSGTSASLAISGLRTEDEAAYYCASWDDRLSGPYVFGPGTEVTVL
B9: C1302 (protein)
chain 1: EVQLVESGGGLVQPGGSLRLSCAASGIIVSRNYMSWVRQAPGKGLEWIAIIYSGGSTFYADSVKGRFSISRDNSKNTLFLQMNSLRAEDTALYYCARDLHTYGLDYWGQGILVTVSS
chain 2: DIQLTQSPSFLSASVGDRVTITCRASQGISSDLAWYQQKPGKAPKLLIYGASTLQSGVPSRFSGSGSGTEFTLTIGSLQPEDFATYYCQHLNSYPPVTFGGGTKVEIK
B10: C1303 (protein)
chain 1: EVQLVESGGGLIQPGGSLRLSCAASGITVSSNYMSWVRQAPGKGPEWVSTLHSGGSTFYADSVKGRFTISRDDSKNTLYLQMNSLRAEDTAVYYCARGGGHYYGMDVWGQGTTVTVSS
chain 2: B9 chain 2 with S31H, D32Y, S56N, G76S, H90R, V97I, G101Q, K104R, V105L
B11: C2021 (protein)
chain 1: EVQLVESGGGLVKPGRSLRLSCTASGFTFGDYAMSWFRQAPGKGLEWVGFIRSKAYGGTTEYAASVKGRFTISRDDSKSIAYLQMNSLKTEDTAVYYCTRDGDYCGGDCPEYFQHWGQGTLVTVSS
chain 2: SYELTQPPSVSVAPGQTARITCGGNNIGSKSVHWYQQKPGQAPVLVVYDDSDRPSGIPERFSGSNSGNTATLTISRVEAGDEADYYCQVWDSSSDHPQVVFGGGTKLTVL
B12: C1305 (protein)
chain 1: EVQLVESGGGLSQPGGSLRLSCAASEIVVSANYMSWVRQAPGKGLEWVSTLYPGGTTYYVDSVKGRFVISRDNSKNTLYLQMNTLRAEDTAVYYCARDLGYFDFWGQGTLVTVSS
chain 2: IRMTQSPSSLSASVGDRVTITCRASQGISNFLAWYQQKPGKAPNLLIYAASTLQSGVPSRFSGSGSGTDFTLTISSLQPQDVATYYCQKYNSAPPWTFGQGTKVEIK
B13: C1400 (protein)
chain 1: EVQLVESGGGLVQPGRSLRLSCAASGFTFDDYAIHWVRQAPGKGLEWVSGVTWNSGTIDYADSVKGRFIISRDNAKNSLYLQMIRLRPEDTALYYCAKDLGSGDGYNFSLDYWGQGTLVTVSS
chain 2: QSVLTQPPSVSGAPGQRVTISCTGSSSNIGAGYDVHWYQQPPGTAPKLLIYGNSNRPSGVPDRFSGSKSGTSASLAITGLQAEDEADYYCQSYDSSLSVVFGGGTKLTVL
B14: C1401 (protein)
chain 1: QLQLQESGRGLVKPSETLSLTCTVSGGSISGSSHYWGWIRQPPGKGLEWIGSIYHSGSTYYNPSLKSRVTISVDTSKNQFSLKLSSVTAADTAVYYCASRRPPFYHDSHDMDVWGQGTTVTVSS
chain 2: QSALTQPRSVSGSPGQSVTISCTGTSSDVGGYDYVSWFQQHPGKAPKLMIYDVTKRPSGVPDRFSGSKSGNTASLTISGLQAEDEADYFCCAFAGKYSPYVFGTGTKVTVL
B15: C1402 (protein)
chain 1: EVQLVESGGGLVQPGGSLRLSCAASGIIVSRNYMSWVRQAPGKGLEWVSIIYSGGSTFYADSVKGRFTISRHNSNNTLHLQMNSLRPEDTAVYYCARGGGYFYGMDVWGQGTTVTVSS
chain 2: not shown
B16: C1403 (protein)
chain 1: QLQLQESGPGLVKPSETLSLTCTVSGGSITSSSYYWGWIRQPPGKGLEWIGSIYYSGSTYYNPSLKSRVTISVDTSKNQFSLKLSSVTAADTAVYYCARLLLYNSGWYGSGAMVPVIIDLWGRGTLVTVSS
chain 2: QSALTQPASVSGSPGQSITISCTGSSSDVGGYKYVSWYQHHPGKAPQLMIYEVSKRPSGVSNRFSGSKSGNTASLTISGLQAEDEADYYCSSYRGSSTLVFGGGTKLTVL
B17: C1404 (protein)
chain 1: VQLVESGGGVVQPGRSLRLSCAASGFTFSSYGMHWVRQAPGKGLEWVAVISYDGSNKYYADSVKGRFTISRDNSKNTLYLQMNSLRAEDTAVYYCAKVGATYCGGGNCLRGYFDYWGQGTLVTVSS
chain 2: QSVLTQPPSASGTPGQRVTISCSGSSPIIGANTVNWYQQLPGTAPKLLIYSNNQRPSGVPDRFSGSKSGTSASLAISGLQSEDEADYYCASWGDSLVFGGGTKLTVL

biological target: SARS-CoV-2 Wuhan-Hu-1 spike pseudovirus; assay: pseudovirus neutralization IC50; higher = weaker neutralization
Method: (§1)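 Single-round luciferase reporter pseudovirus mixed with antibody dilutions and put on 293T-ACE2 cells for 48 h; signal relative to no-antibody wells, four-parameter fit.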

Q: For B1, which “pseudovirus neutralization IC50” value is on record?
A: 0.042 µg/mL

Q: For B2, which “pseudovirus neutralization IC50” value is on record?
A: > 1 µg/mL

Q: With B3 as the binder, how does the “pseudovirus neutralization IC50” value read?
A: > 1 µg/mL

Q: B4 was tested. Which “pseudovirus neutralization IC50” value did it give?
A: > 1 µg/mL

Q: With B5 as the binder, how does the “pseudovirus neutralization IC50” value read?
A: > 1 µg/mL

Q: How did the “pseudovirus neutralization IC50” value turn out when B6 was run?
A: > 1 µg/mL

Q: Which “pseudovirus neutralization IC50” value does the source give for B7 here?
A: 0.0254 µg/mL

Q: Which “pseudovirus neutralization IC50” value does the source give for B8 here?
A: 0.115 µg/mL

Q: Which “pseudovirus neutralization IC50” value does the source give for B9 here?
A: 0.00471 µg/mL

Q: With B10 as the binder, how does the “pseudovirus neutralization IC50” value read?
A: 0.0293 µg/mL

Q: How did the “pseudovirus neutralization IC50” value turn out when B11 was run?
A: > 1 µg/mL

Q: With B12 as the binder, how does the “pseudovirus neutralization IC50” value read?
A: 0.0101 µg/mL

Q: With B13 as the binder, how does the “pseudovirus neutralization IC50” value read?
A: 0.00824 µg/mL

Q: How did the “pseudovirus neutralization IC50” value turn out when B14 was run?
A: > 1 µg/mL

Q: How did the “pseudovirus neutralization IC50” value turn out when B15 was run?
A: > 1 µg/mL

Q: Which “pseudovirus neutralization IC50” value does the source give for B16 here?
A: > 1 µg/mL

Q: With B17 as the binder, how does the “pseudovirus neutralization IC50” value read?
A: > 1 µg/mL

biological target: SARS-CoV-2 Wuhan-Hu-1 spike pseudovirus; assay: pseudovirus neutralization IC90; higher = weaker neutralization
Method: as §1

Q: With B1 as the binder, how does the “pseudovirus neutralization IC90” value read?
A: 0.215 µg/mL

Q: Which “pseudovirus neutralization IC90” value does the source give for B2 here?
A: > 1 µg/mL

Q: B3 was tested. Which “pseudovirus neutralization IC90” value did it give?
A: > 1 µg/mL

Q: How did the “pseudovirus neutralization IC90” value turn out when B4 was run?
A: > 1 µg/mL

Q: B5 was tested. Which “pseudovirus neutralization IC90” value did it give?
A: > 1 µg/mL

Q: How did the “pseudovirus neutralization IC90” value turn out when B6 was run?
A: > 1 µg/mL

Q: With B7 as the binder, how does the “pseudovirus neutralization IC90” value read?
A: 0.613 µg/mL

Q: B8 was tested. Which “pseudovirus neutralization IC90” value did it give?
A: 0.857 µg/mL

Q: B9 was tested. Which “pseudovirus neutralization IC90” value did it give?
A: 0.0311 µg/mL

Q: How did the “pseudovirus neutralization IC90” value turn out when B10 was run?
A: 0.147 µg/mL

Q: For B11, which “pseudovirus neutralization IC90” value is on record?
A: > 1 µg/mL

Q: Which “pseudovirus neutralization IC90” value does the source give for B12 here?
A: 0.175 µg/mL

Q: With B13 as the binder, how does the “pseudovirus neutralization IC90” value read?
A: 0.13 µg/mL

Q: B14 was tested. Which “pseudovirus neutralization IC90” value did it give?
A: > 1 µg/mL

Q: How did the “pseudovirus neutralization IC90” value turn out when B15 was run?
A: > 1 µg/mL

Q: With B16 as the binder, how does the “pseudovirus neutralization IC90” value read?
A: > 1 µg/mL

Q: With B17 as the binder, how does the “pseudovirus neutralization IC90” value read?
A: > 1 µg/mL

biological target: SARS-CoV-2 Wuhan-Hu-1 spike receptor-binding domain; assay: ELISA binding EC50; higher = weaker binding; ELISA of recombinant human antibody on coated antigen, from 10 µg/ml in fourfold dilutions; four-parameter fit.

Q: Which “ELISA binding EC50” value does the source give for B1 here?
A: 0.00215 µg/mL

Q: For B2, which “ELISA binding EC50” value is on record?
A: 0.0192 µg/mL

Q: B3 was tested. Which “ELISA binding EC50” value did it give?
A: 0.00281 µg/mL

Q: B4 was tested. Which “ELISA binding EC50” value did it give?
A: 0.0798 µg/mL

Q: For B5, which “ELISA binding EC50” value is on record?
A: 0.00171 µg/mL

Q: Which “ELISA binding EC50” value does the source give for B6 here?
A: 0.00241 µg/mL

Q: For B7, which “ELISA binding EC50” value is on record?
A: 0.00157 µg/mL

Q: For B8, which “ELISA binding EC50” value is on record?
A: 0.00137 µg/mL

Q: How did the “ELISA binding EC50” value turn out when B9 was run?
A: 0.00166 µg/mL

Q: How did the “ELISA binding EC50” value turn out when B10 was run?
A: 0.00141 µg/mL

Q: For B11, which “ELISA binding EC50” value is on record?
A: 0.00171 µg/mL

Q: With B12 as the binder, how does the “ELISA binding EC50” value read?
A: 0.0029 µg/mL

Q: How did the “ELISA binding EC50” value turn out when B13 was run?
A: 0.00344 µg/mL

Q: Which “ELISA binding EC50” value does the source give for B14 here?
A: 0.00268 µg/mL

Q: B15 was tested. Which “ELISA binding EC50” value did it give?
A: 2 µg/mL

Q: How did the “ELISA binding EC50” value turn out when B16 was run?
A: > 10 µg/mL

Q: For B17, which “ELISA binding EC50” value is on record?
A: > 10 µg/mL
